Laboratory results reported in PubChem BioAssay AID485294 (National Center for Advancing Translational Sciences (NCATS), 2010).
Screen size: about 370,000 compounds; about 150 (0.041%) were called active. The inconclusive results got no clear call from the source; some entries with a clear call stand among them for comparison. Calls follow the shape of the dose curve; as a rule, active = well fitted inhibition curve with a large enough effect; inconclusive = small, poorly fitted or top-dose-only effect; inactive = flat fitted curve, though single readings scatter. No potency is given beside an inconclusive call; the fits are too rough.

target: Beta-lactamase (Escherichia coli (strain K12)) (UniProt P00811); test: qHTS Inhibitors of AmpC Beta-Lactamase (assay with detergent); details: AmpC hydrolysis of nitrocefin, absorbance 480 nm, 0.01% Triton; series mostly up to 114 µM; also: nearly all actives have a fitted effect of over 25% in size
Chain of UniProt P00811 (P00811 whole entry, looked up): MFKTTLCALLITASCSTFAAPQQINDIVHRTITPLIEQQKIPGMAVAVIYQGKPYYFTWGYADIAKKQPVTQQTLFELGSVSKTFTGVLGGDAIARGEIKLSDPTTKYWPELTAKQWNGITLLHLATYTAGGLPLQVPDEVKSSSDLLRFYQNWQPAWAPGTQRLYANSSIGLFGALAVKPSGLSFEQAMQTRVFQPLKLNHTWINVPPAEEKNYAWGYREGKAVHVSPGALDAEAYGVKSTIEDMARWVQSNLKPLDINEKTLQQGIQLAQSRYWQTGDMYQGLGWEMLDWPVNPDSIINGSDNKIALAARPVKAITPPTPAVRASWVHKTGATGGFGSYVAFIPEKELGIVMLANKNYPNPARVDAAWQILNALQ
Outline: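 20 mM phosphate pH 7.0 + 0.01% (detergent screen) or 0.0001% Triton X-100; 5.3 nM AmpC reagent; cpd preinc 15 min RT; nitrocefin (800 uM stock) to start; A480 q20 s × 4 min; Activity was normalised to no-enzyme and no-compound control wells.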
Potency is read from the fitted curve at half-maximal effect; tags tell the direction and shape of the fitted curve.

Compound	Potency
COCCn1c(SCC(=O)c2ccc(Cl)cc2)nnc1C(C)C	inactive
Cc1ccc(SCC(=O)OCC(=O)NCCNC(=O)COC(=O)CSc2ccc(C)c(C)c2)cc1C	inconclusive [inhibitor, full curve, poor fit]
NS(=O)(=O)c1ccc(CCNC(=O)c2ccc(Br)s2)cc1	inactive
O=C1Nc2c(c(=O)[nH]c(=O)n2-c2ccccc2F)C(C(F)(F)F)(C(F)(F)F)N1	inconclusive [inhibitor, single point]
CCOc1ccc(OCCC(=O)N2CCN(S(=O)(=O)c3ccc(OCC)cc3)CC2)cc1	inactive
S=C(NCc1cccs1)Nc1cccc(Cl)c1Cl	inactive
COc1ccc(Cl)cc1N(C)C(=O)C(=O)Nc1ccc2nc3n(c(=O)c2c1)CCCCC3	inactive
O=C(Nc1nc2ccccc2n1CCN1CCOCC1)c1ccc(Cl)cc1	inactive
Cc1ccc(N2CCN(C(=O)c3noc4c3COc3ccc(C)cc3-4)CC2)c(C)c1	inactive
CCCCNCC1C(Oc2ccc(Cl)cc2)C(=O)N1c1ccccc1C (configuration not stated)	inconclusive [inhibitor, single point]
CCc1ncc(C(=O)c2ccc(OC)cc2)n1C	inconclusive [inhibitor, single point]
O=C1CN(C(=O)OCc2ccccc2)c2ccccc2N1	inconclusive [inhibitor, full curve, poor fit]
CCC1(c2ccc(F)cc2)NC(=O)NC1=O (configuration not stated)	inconclusive [inhibitor, full curve, poor fit]
CCOC(=O)c1[nH]c2ccc(OC)cc2c1NC(=O)c1ccc(OC)c(OC)c1	inconclusive [inhibitor, full curve, poor fit]
CC(NC(=O)CNC(=O)c1ccco1)c1ccc(S(N)(=O)=O)cc1 (configuration not stated)	inconclusive [inhibitor, single point]
CCOC(=O)C(=O)Nc1cc(Cl)ccc1C	inconclusive [inhibitor, partial curve, poor fit]
O=C(CN1CCN(Cc2ccccc2)CC1)NCC1COc2ccccc2O1 (configuration not stated)	inconclusive [inhibitor, partial curve, poor fit]
CCC(=O)Nc1ccc(C(=O)CSc2nc3ccccc3[nH]2)cc1	inconclusive [inhibitor, full curve]
O=C(NC1=NCCS1)c1ccc(N2CCCC2=O)cc1	inconclusive [inhibitor, full curve]
Cc1nc2c(Cl)c(C)nn2c2c1CCC2	inconclusive [inhibitor, full curve, poor fit]
Nc1nc(SCc2ccc3c(c2)OCO3)n[nH]1	inconclusive [inhibitor, full curve, poor fit]
Cc1ccc2oc(=O)n(CCNC(=O)Nc3ccc(C)c(F)c3)c2c1	inactive
Cc1[nH]c(=S)c(C#N)c2c1CCCC2	inconclusive [inhibitor, partial curve, poor fit]

Compound	Potency
COc1ccccc1C1C=C(c2ccc(Cl)cc2)Nc2nc(-c3ccc(Cl)cc3)nn21 (configuration not stated)	inactive
CC1CCCN(CC(O)COC(c2ccccc2)c2ccccc2)C1 (configuration not stated)	inconclusive [inhibitor, full curve, poor fit]
COc1cc(CNCc2ccccn2)ccc1OCc1ccccc1Cl	inconclusive [inhibitor, full curve, poor fit]
CCCCN1/C(=C/c2cccc[n+]2C)Sc2cc(NC(C)=O)ccc21	inactive
O=C(CSc1n[nH]c(-c2ccccc2)n1)N1CCOCC1	inconclusive [inhibitor, partial curve]
Cc1ccc2c(c1)c(C)cc(=O)n2CCC(=O)O	inconclusive [inhibitor, single point]
CCOc1ccc(NC(=O)Cn2nnc(-c3ccc(C(N)=O)cc3)n2)cc1S(=O)(=O)N1CCCC1	inconclusive [inhibitor, partial curve]
COc1ccccc1OC(=O)c1cc2ccccc2oc1=O	inconclusive [inhibitor, partial curve, poor fit]
O=C(/C=C/c1ccc2c(c1)OCO2)NCc1ccco1	inconclusive [inhibitor, partial curve]
NC(=O)CSc1nnc(-c2ccccc2F)n1C1CC1	inconclusive [inhibitor, partial curve]
O=C(Nc1nnc(S(=O)(=O)N2CCOCC2)s1)c1ccc(F)cc1	inconclusive [inhibitor, full curve, poor fit]
CSc1nsc(SCC(=O)Nc2ccc(F)cc2)n1	inconclusive [inhibitor, full curve, poor fit]
COc1ccc(CNC(=O)CS(=O)Cc2nc(-c3ccccc3C)oc2C)cc1 (configuration not stated)	inconclusive [inhibitor, full curve, poor fit]
COc1ccc(NC(=O)CC2Oc3ccccc3NC2=O)cc1 (configuration not stated)	inconclusive [inhibitor, full curve, poor fit]
CCC(C)N(C(=O)CSc1nnc(NC(C)C)s1)C1CCS(=O)(=O)C1 (configuration not stated)	inconclusive [inhibitor, partial curve, poor fit]
Cc1ccc(S(=O)(=O)Cc2ccc(C(=O)O)o2)cc1	inactive
N#C/C(=C/c1ccc(Sc2nc3ccccc3[nH]2)o1)c1cccc(F)c1	inconclusive [inhibitor, full curve, poor fit]
O=C(CCc1nc(-c2ccccc2F)no1)N1CCC2(CC1)OCCO2	inconclusive [inhibitor, full curve, poor fit]
COc1cc(CN(C(=S)NCC(=O)N2CCCC2)C2CCCC2)cc(OC)c1OC	inconclusive [inhibitor, full curve, poor fit]
COC(=O)C(C)Sc1nnc2n(-c3cccc(C)c3)c(=O)c3c4c(sc3n12)CCCC4 (configuration not stated)	inconclusive [inhibitor, partial curve]
CCOc1ccc(CNC(=O)C2Cc3cc(S(=O)(=O)N4CCCCCC4)ccc3N2C(C)=O)cc1 (configuration not stated)	inactive
COc1cc2c(cc1NC(=O)c1cccc([N+](=O)[O-])c1)oc1ccccc12	inconclusive [inhibitor, full curve, poor fit]
COCCCn1c(=O)/c(=C\c2ccccc2OC(F)F)s/c1=C(/C#N)C(=O)NC(C)C	inconclusive [inhibitor, single point]

Compound	Potency
CCOC(=O)c1c(NC(=O)CSc2nnc(-c3cccnc3)o2)sc(C)c1C	inconclusive [inhibitor, partial curve]
CC(=O)NCCSc1ccc(S(=O)(=O)N2CCCC2)cn1	inactive
N#Cc1c(NC(=O)CSc2n[nH]c(Cc3ccccc3)n2)oc(-c2ccccc2)c1-c1ccccc1	inconclusive [inhibitor, full curve, poor fit]
C[C@H]1CC[C@@]2(C)[C@@H](CC[C@@H]3[C@@H]2CC[C@]2(C)[C@@H](O)CC[C@@H]32)C1	inactive
CCCc1cc(=O)oc2c(CN3CCCC3)c(O)ccc12	inconclusive [inhibitor, partial curve, poor fit]
NC(=O)c1ccccc1NC(=O)COc1ccc2c(c1)OCO2	inconclusive [inhibitor, full curve]
O=C(Cn1cncn1)NCc1ccc(Cl)cc1	inconclusive [inhibitor, full curve, poor fit]
Fc1ccccc1CNc1ccc(Cl)cc1	inconclusive [inhibitor, partial curve]
COc1ccc(-c2nnc(NC(=O)c3cc(Cl)ccc3Cl)o2)cc1	inconclusive [inhibitor, partial curve, poor fit]
O=C(CSc1nc2scc(-c3ccccc3)c2c(=O)[nH]1)N1CCOCC1	inactive
Cc1ccc(NC2=NCCC2)cc1Cl	inactive
CC(C)(C)c1ccc(C(=O)NC(=O)CSc2n[nH]c(N)n2)cc1	inactive
CCOc1ccc(-c2cc(CCCC(=O)NCc3cccnc3)no2)cc1	inconclusive [inhibitor, full curve]
CCOc1ccc(C(=O)Nc2cc(-c3ccccc3)no2)cc1	inactive
CN(C)S(=O)(=O)c1ccc(N=Cc2c(C(F)(F)F)[nH][nH]c2=O)cc1	inconclusive [inhibitor, full curve, poor fit]
Cc1nnc(SCC(=O)N(CCC#N)c2ccc3c(c2)OCCO3)s1	inconclusive [inhibitor, full curve]
Cc1cccc(C(=O)N2N=C(c3ccc(NS(C)(=O)=O)cc3)CC2c2cccs2)c1 (configuration not stated)	inactive
COc1ccc([C@@H]2[C@@H]3C(=O)N(C(C)(C)C)C(=O)[C@@H]3[C@]3(CC(C)C)C(=O)N(c4cccc(Br)c4)C(=O)N23)cc1	inconclusive [inhibitor, full curve, poor fit]
Cc1cccc(-c2nnc(SCC(=O)NC3CCCCC3)o2)c1	inactive
CCC1(c2ccccc2)NC(=O)N(CC(=O)Nc2cccc(C#N)c2)C1=O (configuration not stated)	inconclusive [inhibitor, partial curve, poor fit]
CC(C)(C)OC(=O)N1CC(O)CC1C(=O)OCC(=O)c1ccc(Cl)cc1 (configuration not stated)	inconclusive [inhibitor, single point]
